Experimental data taken from the antibiotic and cytotoxicity screens of Wong et al. (2023).
The list shows a part of the results.

What was measured:
HSkMC = human skeletal muscle cells; assay: cytotoxicity call (relative viability < 0.9); conditions: 10 µM
HepG2 = assay: cytotoxicity call (relative viability < 0.9); conditions: 10 µM
S. aureus RN4220 = assay: growth inhibition call (relative growth <= 0.2); conditions: 50 µM

C[C@H](CO)N1C[C@H](C)[C@H](CN(C)Cc2ccc(C(=O)O)cc2)Oc2c(NC(=O)C3CC3)cccc2C1=O
inactive: cytotoxicity call (HSkMC) | cytotoxicity call (HepG2) | growth inhibition call (S. aureus RN4220)

O=C(C[C@H]1CC[C@@H]2[C@H](COC[C@H](O)CN2S(=O)(=O)c2ccccc2)O1)NCCN1CCCC1
inactive: cytotoxicity call (HSkMC) | cytotoxicity call (HepG2) | growth inhibition call (S. aureus RN4220)

CO[C@@H]1CN(C)C(=O)c2cc(NS(C)(=O)=O)ccc2OC[C@H](C)N(C(=O)C2CCCCC2)C[C@H]1C
inactive: cytotoxicity call (HSkMC) | cytotoxicity call (HepG2) | growth inhibition call (S. aureus RN4220)

Cn1nc(C(=O)O)c2ccccc2c1=O
inactive: cytotoxicity call (HSkMC) | cytotoxicity call (HepG2) | growth inhibition call (S. aureus RN4220)

O=C(/C=C/c1ccc(O)c(O)c1)O[C@H]1[C@H](O)C[C@](O)(C(=O)O)C[C@H]1OC(=O)/C=C/c1ccc(O)c(O)c1
inactive: cytotoxicity call (HSkMC) | cytotoxicity call (HepG2) | growth inhibition call (S. aureus RN4220)

C[C@@H]1CN([C@@H](C)CO)C(=O)c2cc(/C=C/c3ccccc3)cnc2O[C@H]1CN(C)C(=O)c1cnccn1
inactive: cytotoxicity call (HSkMC) | cytotoxicity call (HepG2) | growth inhibition call (S. aureus RN4220)

CN(c1c[nH]c(=O)[nH]c1=O)C1CCCCC1
inactive: cytotoxicity call (HSkMC) | cytotoxicity call (HepG2) | growth inhibition call (S. aureus RN4220)

COc1ccc(S(=O)(=O)N(C)C[C@H]2Oc3ccc(NC(=O)CCN4CCOCC4)cc3CC(=O)N([C@@H](C)CO)C[C@@H]2C)cc1
inactive: cytotoxicity call (HSkMC) | cytotoxicity call (HepG2) | growth inhibition call (S. aureus RN4220)

CO[C@H]1CN(C)C(=O)c2cc(NC(=O)CC(F)(F)F)ccc2OC[C@H](C)N(C(=O)C2CCOCC2)C[C@H]1C
inactive: cytotoxicity call (HSkMC) | cytotoxicity call (HepG2) | growth inhibition call (S. aureus RN4220)

CC1CCC2C(C)(CO)C(O)CCC2(C)C12CCC(CO)(CCO)O2 (stereo unspecified)
inactive: cytotoxicity call (HSkMC) | cytotoxicity call (HepG2) | growth inhibition call (S. aureus RN4220)

CO[C@H]1CN(C)C(=O)c2cc(NS(=O)(=O)CC(F)(F)F)ccc2OC[C@@H](C)N(Cc2cccnc2)C[C@@H]1C
inactive: cytotoxicity call (HSkMC) | cytotoxicity call (HepG2) | growth inhibition call (S. aureus RN4220)

C[C@@H]1CN([C@@H](C)CO)C(=O)Cc2cc(N(C)C)ccc2O[C@@H]1CN(C)C(=O)Nc1ccc2c(c1)OCO2
inactive: cytotoxicity call (HSkMC) | cytotoxicity call (HepG2) | growth inhibition call (S. aureus RN4220)

CC(=O)N(C)C[C@H]1Oc2ncc(C#CC(C)(C)O)cc2C(=O)N([C@H](C)CO)C[C@H]1C
inactive: cytotoxicity call (HSkMC) | cytotoxicity call (HepG2) | growth inhibition call (S. aureus RN4220)

Cc1noc(C)c1NC(=O)Nc1cccc2c1O[C@@H](CN(C)Cc1ccc(C(F)(F)F)cc1)[C@@H](C)CN([C@H](C)CO)C2=O
inactive: cytotoxicity call (HSkMC) | cytotoxicity call (HepG2) | growth inhibition call (S. aureus RN4220)

N[C@@H]1CC[C@@H](CCn2cc(-c3cccc(F)c3)nn2)O[C@H]1CO
inactive: cytotoxicity call (HSkMC) | cytotoxicity call (HepG2) | growth inhibition call (S. aureus RN4220)

COCC(=O)N1C[C@@H](C)[C@@H](OC)CN(C)C(=O)c2ccc(NC(=O)c3cc(C)on3)cc2OC[C@@H]1C
inactive: cytotoxicity call (HSkMC) | cytotoxicity call (HepG2) | growth inhibition call (S. aureus RN4220)

C[C@@H]1CN([C@H](C)CO)C(=O)c2cccc(NC(=O)c3ccc(-c4nccs4)cc3)c2O[C@@H]1CN(C)Cc1ccc(C(=O)O)cc1
inactive: cytotoxicity call (HSkMC) | cytotoxicity call (HepG2) | growth inhibition call (S. aureus RN4220)

Cc1noc(C)c1S(=O)(=O)N(C)C[C@@H]1Oc2ccc(NS(=O)(=O)c3cn(C)cn3)cc2CC(=O)N([C@@H](C)CO)C[C@@H]1C
inactive: cytotoxicity call (HSkMC) | cytotoxicity call (HepG2) | growth inhibition call (S. aureus RN4220)

CS(=O)(=O)N1[C@@H]2Cn3c(ccc(-c4ccccc4)c3=O)[C@H]1[C@@H](C(=O)NCC1CC1)[C@@H]2CO
inactive: cytotoxicity call (HSkMC) | cytotoxicity call (HepG2) | growth inhibition call (S. aureus RN4220)

C[C@@H]1CCCCO[C@H](CN(C)Cc2ccc(C(F)(F)F)cc2)[C@@H](C)CN([C@H](C)CO)C(=O)c2cc(NC(=O)CCCCCC(=O)Nc3ccccc3N)ccc2O1
inactive: cytotoxicity call (HSkMC) | cytotoxicity call (HepG2) | growth inhibition call (S. aureus RN4220)

Cl.Clc1cccc(Cl)c1N=C1NCCN1
inactive: cytotoxicity call (HSkMC) | cytotoxicity call (HepG2) | growth inhibition call (S. aureus RN4220)

COc1cccc(-c2ccc3c(c2)O[C@@H](CN(C)C(=O)C2CCC2)[C@@H](C)CN([C@@H](C)CO)S3(=O)=O)c1
inactive: cytotoxicity call (HSkMC) | cytotoxicity call (HepG2) | growth inhibition call (S. aureus RN4220)

CN(C)CCNc1ccc(CN)cc1
inactive: cytotoxicity call (HSkMC) | cytotoxicity call (HepG2) | growth inhibition call (S. aureus RN4220)

C[C@H]1CN([C@@H](C)CO)C(=O)c2cc(-c3cncnc3)cnc2O[C@@H]1CN(C)C(=O)CN1CCOCC1
inactive: cytotoxicity call (HSkMC) | cytotoxicity call (HepG2) | growth inhibition call (S. aureus RN4220)

C[C@@H]1CN([C@H](C)CO)C(=O)c2cc(NS(C)(=O)=O)ccc2O[C@H]1CN(C)C(=O)NC1CCCCC1
inactive: cytotoxicity call (HSkMC) | cytotoxicity call (HepG2) | growth inhibition call (S. aureus RN4220)

C[C@@H]1CN([C@H](C)CO)C(=O)Cc2cc(NC(=O)C3CC3)ccc2O[C@@H]1CN(C)Cc1ccc2c(c1)OCO2
inactive: cytotoxicity call (HSkMC) | cytotoxicity call (HepG2) | growth inhibition call (S. aureus RN4220)

CN1CCCN=C1C=Cc1cccc(O)c1.O=C(O)c1cc2ccccc2c(Cc2c(O)c(C(=O)O)cc3ccccc23)c1O
inactive: cytotoxicity call (HSkMC) | cytotoxicity call (HepG2) | growth inhibition call (S. aureus RN4220)
